Measured values reported in patent US8975247B2, “Methods and compositions of treating a flaviviridae family viral infection” (priority 2009, dated 2015).
Like-named read-outs stand apart in the source and are kept apart here.

Experiments:
hERG channel = hERG channel (Homo sapiens (Human), UniProt Q12809); test: hERG channel assay (whole cell patch clamp)
[1] = tested on: HCV genotype 2a infectious clone; test: HCV genotype 2a infectious clone assay (Renilla luciferase); type: cell-based; conditions: for activity at 5 µM: Hepatitis C virus, read-out: 2a % activity @ 5 μM, % replication activity of control remaining at 5 μM test compound; for 2a % activity @ 5 μM: % replication activity of control remaining at 5 μM test compound
Huh7.5 cells = type: cell-based; conditions: human, 3 days
[2] = MTT assay for HCV replicon reporter cell lines (cell toxicity); conditions: human

hERG channel, sequence (Q12809 whole entry): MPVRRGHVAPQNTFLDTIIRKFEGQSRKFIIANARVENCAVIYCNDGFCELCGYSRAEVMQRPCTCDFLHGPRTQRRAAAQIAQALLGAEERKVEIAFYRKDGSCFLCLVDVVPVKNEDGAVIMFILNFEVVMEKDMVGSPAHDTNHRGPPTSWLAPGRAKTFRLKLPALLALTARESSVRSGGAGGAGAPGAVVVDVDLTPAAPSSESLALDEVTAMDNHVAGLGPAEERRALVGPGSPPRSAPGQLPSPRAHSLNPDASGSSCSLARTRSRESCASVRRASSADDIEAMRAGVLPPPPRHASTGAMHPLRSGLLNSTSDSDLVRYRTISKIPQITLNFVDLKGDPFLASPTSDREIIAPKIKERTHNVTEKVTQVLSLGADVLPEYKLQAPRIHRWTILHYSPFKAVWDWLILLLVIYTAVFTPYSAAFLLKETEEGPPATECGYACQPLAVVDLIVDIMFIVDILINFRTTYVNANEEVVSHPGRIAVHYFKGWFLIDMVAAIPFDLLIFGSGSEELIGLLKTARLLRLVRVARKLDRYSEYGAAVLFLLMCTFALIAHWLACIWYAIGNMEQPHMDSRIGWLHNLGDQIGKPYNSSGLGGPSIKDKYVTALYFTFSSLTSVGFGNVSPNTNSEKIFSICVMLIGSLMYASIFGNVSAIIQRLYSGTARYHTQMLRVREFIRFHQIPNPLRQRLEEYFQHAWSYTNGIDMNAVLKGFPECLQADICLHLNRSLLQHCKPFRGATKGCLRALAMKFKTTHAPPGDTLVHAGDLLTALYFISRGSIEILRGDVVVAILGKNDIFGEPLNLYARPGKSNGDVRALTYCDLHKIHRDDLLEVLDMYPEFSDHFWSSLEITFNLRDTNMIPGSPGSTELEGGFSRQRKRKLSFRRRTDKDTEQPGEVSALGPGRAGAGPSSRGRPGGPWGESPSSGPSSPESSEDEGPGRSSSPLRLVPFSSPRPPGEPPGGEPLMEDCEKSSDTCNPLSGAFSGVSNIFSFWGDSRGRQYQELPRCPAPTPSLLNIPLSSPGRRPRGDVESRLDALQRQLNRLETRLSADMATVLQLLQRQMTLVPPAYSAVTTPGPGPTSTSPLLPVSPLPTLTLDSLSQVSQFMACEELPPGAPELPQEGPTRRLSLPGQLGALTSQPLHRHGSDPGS

| Structure (SMILES) | activity at 5 µM [1] [%] | 2a Cell Viability @ 5 μM (Huh7.5 cells) | 2a Cell Viability @ 10 μM (Huh7.5 cells) | EC50 at 48 h [2] [µM] | further results |
| --- | --- | --- | --- | --- | --- |
| Clc1ccc(Cn2c(CN3CCCC3)nc3ccccc32)cc1 [EBP001] | 70 | 100% | 90% | – | IC50 (hERG channel): < 1 µM |
| Cc1cc2ncn(Cc3ccc(Cl)cc3)c2cc1C [EBP003] | – | 85% | 100% | – | IC50 (hERG channel): 7 µM; 2a % activity @ 5 μM [1]: 50% |
| COc1ccc(Cn2cnc3c(NS(C)(=O)=O)c(C)c(C)cc32)cc1 [EBP103] | – | 100, 100% | 100, 100% | – | IC50 (hERG channel): > 30 µM; 2a % activity @ 5 μM [1]: 35% |
| O=c1ccc(-c2nc3cc(Cl)c(Cl)cc3n2Cc2ccc(Cl)c(Cl)c2)c[nH]1 [EBP106] | 50 | 93% | 83% | – | IC50 (hERG channel): 5 µM |
| OCc1nc2ccccc2n1Cc1ccc(Cl)cc1 [EBP143] | 85 | >100, >100% | >100, >100% | – | IC50 (hERG channel): > 30 µM |
| OC[C@@H]1CCCN1Cc1nc2ccccc2n1Cc1ccc(Cl)cc1 [EBP163] | 71 | >100, >100% | >100, >100% | – | IC50 (hERG channel): < 1 µM |
| Cc1ccc2c(c1)nc(CN1CCC[C@@H]1C)n2Cc1ccc(Cl)cc1 [EBP315] | 39 | 86% | 81% | – | IC50 (hERG channel): < 1 µM |
| Cc1cc2nc(COC3CCCC3)n(Cc3ccc(Cl)cc3)c2cc1C [EBP325] | 49 | >100, >100% | >100, >100% | – | IC50 (hERG channel): > 10 µM |
| Cc1cc2nc(/C=C/C3CCNC3)n(Cc3ccc(Cl)cc3)c2cc1C (centres unmarked) [EBP372] | – | – | – | > 25 | IC50 (hERG channel): 1.6 µM |
| Cc1cc2nc(/C=C/c3ccccn3)n(Cc3ccc(Cl)cc3)c2cc1C [EBP375] | – | – | – | > 25 | – |
| Cc1cc2nc(/C=C/c3ccco3)n(Cc3ccc(Cl)cc3)c2cc1C [EBP376] | 76 | 105% | 98% | – | IC50 (hERG channel): > 10 µM |
| Cc1cc2nc(/C=C/C3CCCNC3)n(Cc3ccc(Cl)cc3)c2cc1C (centres unmarked) [EBP378] | – | – | – | > 25 | – |
| Cc1cc2nc(CCc3ccncc3)n(Cc3ccc(Cl)cc3)c2cc1C [EBP417] | – | – | – | > 25 | – |
| Cc1cc2nc(CCC3CCCN3)n(Cc3ccc(Cl)cc3)c2cc1C (centres unmarked) [EBP418] | – | – | – | > 25 | – |
| Cc1ccc2nc(CN3CCCC3)n(Cc3ccc(Cl)cc3)c2c1 [EBP425] | 90 | 100, 100% | 100, 100% | – | IC50 (hERG channel): 0.65 µM |
| Cc1ccc2nc(CN3CCC[C@H]3CO)n(Cc3ccc(Cl)cc3)c2c1 [EBP426] | – | – | – | > 25 | – |
| Cc1ccc2nc(CN3CCC[C@H]3C)n(Cc3ccc(Cl)cc3)c2c1 [EBP427] | 86 | 100% | 91% | – | – |
| Cc1ccc2nc(CN3CCCCC3)n(Cc3ccc(Cl)cc3)c2c1 [EBP428] | 65 | 100, 100% | 100, 100% | – | – |
| Cc1cc2c(ncn2Cc2ccc(Cl)cc2)c(NS(=O)(=O)C2CC2)c1C [EBP430] | 89 | 98% | 92% | – | – |
| Cc1cc2c(ncn2Cc2ccc(Cl)cc2)c(NS(=O)(=O)C2CCCCC2)c1C [EBP431] | 79 | 100% | 92% | – | – |
| Cc1cc2c(ncn2Cc2ccc(Cl)cc2)c(NCC2CCCCC2)c1C [EBP432] | 90 | 93% | 94% | – | – |
| Cc1cc2c(ncn2Cc2ccc(Cl)cc2)c(NC2CCCCC2)c1C [EBP435] | 86 | 100% | 93% | – | – |

| Structure (SMILES) | activity at 5 µM [1] [%] | 2a Cell Viability @ 5 μM (Huh7.5 cells) | 2a Cell Viability @ 10 μM (Huh7.5 cells) | EC50 at 48 h [2] [µM] | further results |
| --- | --- | --- | --- | --- | --- |
| Cc1cc2nc(C(C)Cc3ccncc3)n(Cc3ccc(Cl)cc3)c2cc1C (centres unmarked) [EBP461] | – | – | – | > 25 | IC50 (hERG channel): 8.8 µM; IC50 (hERG channel; read-out: hERG IC50, CHO cell line expressing hERG): 8.8 µM |
| C/C(=C\c1cccnc1)c1nc2cc(C)c(C)cc2n1Cc1ccc(Cl)cc1 [EBP462] | 45 | 95% | 91% | – | IC50 (hERG channel): > 10 µM |
| Cc1cc2nc(CCC3CCNC3)n(Cc3ccc(Cl)cc3)c2cc1C (centres unmarked) [EBP463] | – | – | – | > 25 | – |
| Cc1cc2nc(C=C3CCCCC3)n(Cc3ccc(Cl)cc3)c2cc1C [EBP466] | 80 | 100, 100% | 100, 100% | – | – |
| Cc1cc2nc(CC3CCNCC3)n(Cc3ccc(Cl)cc3)c2cc1C [EBP467] | – | – | – | > 25 | IC50 (hERG channel): 1.1 µM |
| Cc1cc2nc(/C=C/C3CCCN3C)n(Cc3ccc(Cl)cc3)c2cc1C (centres unmarked) [EBP470] | – | – | – | 9.2 | – |
| Cc1cc2nc(/C=C/c3cccs3)n(Cc3ccc(Cl)cc3)c2cc1C [EBP475] | 38 | 100% | 95% | – | – |
| Cc1cc2nc(/C=C/c3ccsc3)n(Cc3ccc(Cl)cc3)c2cc1C [EBP476] | 60 | 95% | 76% | – | – |
| CC(=O)N1CCCC1CCc1nc2cc(C)c(C)cc2n1Cc1ccc(Cl)cc1 (centres unmarked) [EBP479] | 82 | 91, 91% | 91, 91% | – | – |
| Cc1cc2nc(CCC3CCCN3C)n(Cc3ccc(Cl)cc3)c2cc1C (centres unmarked) [EBP480] | – | – | – | > 25 | – |
| Clc1ccc(Cn2c(CN3CCCCO3)nc3ccccc32)cc1 [EBP481] | 93 | 91% | 87% | – | – |
| COc1ccc2nc(CN3CCCC3)n(Cc3ccc(Cl)cc3)c2c1 [EBP482] | 77 | 100, 100% | 100, 100% | – | – |
| Oc1ccc2nc(CN3CCCC3)n(Cc3ccc(Cl)cc3)c2c1 [EBP483] | 75 | 90% | 80% | – | – |
| COc1ccc2nc(CN3CCC[C@H]3CO)n(Cc3ccc(Cl)cc3)c2c1 [EBP484] | 81 | 87% | 83% | – | IC50 (hERG channel): 5 µM |
| OC[C@@H]1CCCN1Cc1nc2ccc(O)cc2n1Cc1ccc(Cl)cc1 [EBP485] | 70 | 87% | 78% | – | – |
| COc1ccc2nc(CN3CCC[C@@H]3C)n(Cc3ccc(Cl)cc3)c2c1 [EBP486] | 76 | 100, 100% | 100, 100% | – | – |
| C[C@H]1CCCN1Cc1nc2ccc(O)cc2n1Cc1ccc(Cl)cc1 [EBP487] | 75 | 93% | 92% | – | – |
| COc1ccc2nc(CN3CCCCC3CO)n(Cc3ccc(Cl)cc3)c2c1 (centres unmarked) [EBP488] | 74 | 89% | 84% | – | – |
| COc1ccc2nc(CN3CCC[C@H]3C)n(Cc3ccc(Cl)cc3)c2c1 [EBP489] | 73 | 100% | 97% | – | – |
| O[C@@H]1CN(Cc2nc3ccccc3n2Cc2ccc(Cl)cc2)C[C@H]1O [EBP491] | 90 | 94% | 100% | – | – |
| Cc1cc2nc(/C=C/C3CCCN(C)C3)n(Cc3ccc(Cl)cc3)c2cc1C (centres unmarked) [EBP549] | – | – | – | > 25 | – |
| Cc1cc2nc(/C=C/C3CCCN(S(C)(=O)=O)C3)n(Cc3ccc(Cl)cc3)c2cc1C (centres unmarked) [EBP550] | – | – | – | > 25 | – |

| Structure (SMILES) | activity at 5 µM [1] [%] | 2a Cell Viability @ 5 μM (Huh7.5 cells) | 2a Cell Viability @ 10 μM (Huh7.5 cells) | EC50 at 48 h [2] [µM] | further results |
| --- | --- | --- | --- | --- | --- |
| Cc1cc2nc(CCC3CCCN(C)C3)n(Cc3ccc(Cl)cc3)c2cc1C (centres unmarked) [EBP558] | – | – | – | > 25 | – |
| Cc1cc2nc(CC3CCCNC3)n(Cc3ccc(Cl)cc3)c2cc1C (centres unmarked) [EBP660] | – | – | – | > 25 | – |
| C/C(=C\C1CCNCC1)c1nc2cc(C)c(C)cc2n1Cc1ccc(Cl)cc1 [EBP771] | – | – | – | > 25 | – |
| CN1CCC(/C=C/c2nc3cc(Br)ccc3n2Cc2ccc(Cl)cc2)C1 (centres unmarked) [EBP773] | – | – | – | > 25 | – |
| Cc1cc2nc(C(C)CC3CCNCC3)n(Cc3ccc(Cl)cc3)c2cc1C (centres unmarked) [EBP796] | – | – | – | > 25 | – |
| C/C(=C\C1CCCNC1)c1nc2cc(C)c(C)cc2n1Cc1ccc(Cl)cc1 (centres unmarked) [EBP797] | – | – | – | > 25 | – |
| Cc1cc2nc(C(C)CC3CCCN3)n(Cc3ccc(Cl)cc3)c2cc1C (centres unmarked) [EBP799] | – | – | – | > 25 | – |
| C/C(=C\C1CCCN1)c1nc2cc(C)c(C)cc2n1Cc1ccc(Cl)cc1 (centres unmarked) [EBP800] | – | – | – | > 25 | – |
| CN1CCC(/C=C/c2nc3cc(-c4ccco4)ccc3n2Cc2ccc(Cl)cc2)C1 (centres unmarked) [EBP801] | – | – | – | 23 | – |
| CN1CCC(CCc2nc3cc(-c4ccco4)ccc3n2Cc2ccc(Cl)cc2)C1 (centres unmarked) [EBP802] | – | – | – | 21 | – |
| Clc1ccc(Cn2c(CNC3CCNCC3)nc3ccccc32)cc1 [EBP805] | – | – | – | > 25 | – |
| CC1CC(NCc2nc3ccccc3n2Cc2ccc(Cl)cc2)CCN1 (centres unmarked) [EBP809] | – | – | – | > 25 | – |
| Cc1cc2nc(/C=C3\CCNC(C)C3)n(Cc3ccc(Cl)cc3)c2cc1C (centres unmarked) [EBP869] | – | – | – | > 25 | – |
| Cc1cc2nc(C=C3CC4CCC(C3)N4)n(Cc3ccc(Cl)cc3)c2cc1C [EBP870] | – | – | – | 6.3 | – |
| Cc1cc2nc(CC3CCNC(C)C3)n(Cc3ccc(Cl)cc3)c2cc1C (centres unmarked) [EBP881] | – | – | – | – | IC50 (hERG channel): 0.58 µM |
| Clc1ccc(Cn2c(CNC3CC4CCCC(C3)N4)nc3ccccc32)cc1 (centres unmarked) [EBP926] | – | – | – | > 25 | – |
| Clc1ccc(Cn2c(CNCC3CCCNC3)nc3ccccc32)cc1 (centres unmarked) [EBP928] | – | – | – | > 25 | – |
| Clc1ccc(Cn2c(/C=C/C3CCN(C4CCCC4)C3)nc3cc(Br)ccc32)cc1 (centres unmarked) [EBP934] | – | – | – | > 25 | – |
| Clc1ccc(Cn2c(/C=C\C3CCN(C4CCCC4)C3)nc3cc(Br)ccc32)cc1 (centres unmarked) [EBP935] | – | – | – | > 25 | – |
| Clc1ccc(Cn2c(/C=C/C3CCN(CCCC4CCCCC4)C3)nc3cc(Br)ccc32)cc1 (centres unmarked) [EBP936] | – | – | – | 9.9 | – |
| Clc1ccc(Cn2c(/C=C\C3CCN(CCCC4CCCCC4)C3)nc3cc(Br)ccc32)cc1 (centres unmarked) [EBP937] | – | – | – | > 25 | – |
